± gives the standard deviation of the averaged measurements. The list shows a part of the results.
These sequences were tested on PfAP2-EXP AP2 domain (GST-tagged) (assay: gcPBM binding intensity (ln(normalized median fluorescence intensity)); higher = stronger DNA binding).
Summary of the method: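 The binding buffer was 1× PBS containing 1% milk, 0.2 mg/ml BSA, 0.5% salmon testes DNA and 0.03% Triton X-100. In it, GST-tagged P. falciparum DNA-binding domains expressed in E. coli were applied for 1 h to an Agilent 4 × 180k array of primer-extended double-stranded 36-bp intergenic genomic probes plus negative controls. Binding intensity, read with Alexa488 anti-GST antibody and a 488 nm scan, is the highest Masliner-normalised natural-log median intensity across replicate spots of either probe orientation.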

Sequence | gcPBM binding intensity (ln)
TTAGGATATTTATTTCGTACATATATTTTTAATTGT [XGTACX_site582] | 8.14 ± 0.41
AATTTTTATATAATTTAACACACATTTCATATAAAA [CACACA_site9018] | 8.35 ± 0.36
TACTTCATATAATTAGCACACAATAATTTCTCATTT [CACACA_site2872] | 8.54 ± 0.43
TATAAATTATTTATCACACATAAAACAAAAATAAGA [CACACA_site5493] | 8.84 ± 0.28
ATATATATTAAAAATAGTACATATAATAAAAATCAT [XGTACX_site4265] | 8.65 ± 0.38
ATATGAAATATATGTAGTACACATAATTAAAAGTAG [XGTACX_site6490] | 8.88 ± 0.28
TGTATATGTTTAATTAGTACATATAAAGTAACAATA [XGTACX_site1207] | 8.54 ± 0.33
TACATATTCCTACAAATGTATAAATTATAAATATTA [XGTACX_negctrl_site30] | 8.02 ± 0.3
AACGATATAGGTACTACACACATTATGTCATCCTAT [CACACA_site7205] | 8.73 ± 0.35
TTTGTGGTTACATGTGCACACACTTATTTCGTTCTT [CACACA_site1435] | 9.03 ± 0.23
GATATGTTTTCCTAGGTTCATGATGATAGGTAGTTT [XGTACX_negctrl_site217] | 8.85 ± 0.29
AATATATAAATTGACACACACATATATACATATATA [CACACA_site1213] | 8.46 ± 0.39
TGTTAATATATCATTATGTTATAGGTTCAGCTGGGA [CACACA_negctrl_site401] | 8.44 ± 0.46
ATATGCTACATTATATGTACACACATATACATATAT [XGTACX_site1656] | 8.61 ± 0.38
TAATATAAAGAAATATCAATAATTTGGGCAAATGCC [GTGCAC_negctrl_site621] | 8.22 ± 0.18
AGGTAGAAAAAAGACACACACATTATATATATATAT [CACACA_site4367] | 9.98 ± 0.27
AAGGTGGTTATTAAATGTACACAGACATATACAAAA [XGTACX_site3007] | 8.54 ± 0.36
TTTTATGCATGTGAAGTGCAAAATAAAAAATAAAAT [GTGCAC_site9612] | 9.21 ± 0.028
TATATTTGTTAATTTTGTACGTATGGATATACATAA [XGTACX_site5100] | 8.12 ± 0.35
TATAAATATAGAATTACACACAATGTTCTATAAATA [CACACA_site7508] | 8.19 ± 0.35
AATAAATAAATAAATAAAACAAAGGGATTACATACA [TGCATGCA_negctrl_site513] | 8.91 ± 0.26
CACAACATATATATATATATATATATATATATGTGT [CACACA_negctrl_site28] | 9.235 ± 0.049
ATATTTTGTTATGTAGATGTTGGTAGGAATTTTGGT [CACACA_negctrl_site1104] | 8.46 ± 0.47
TTAAAAAAATATTGAAGTACACACATTATAAACTTT [XGTACX_site3548] | 8.49 ± 0.25

Reference: the supplement of paper PMC11417369
